Measured values from US20240269276A1 (HARBOUR BIOMED SHANGHAI, published 2024).

Biological target: T1, human CD73 on CHO-K1 cells overexpressing human CD73 (human, UniProt P21589 27-549)
T1 construct: whole, on cells; also called CHO-K1-hCD73
T1 sequence (looked up): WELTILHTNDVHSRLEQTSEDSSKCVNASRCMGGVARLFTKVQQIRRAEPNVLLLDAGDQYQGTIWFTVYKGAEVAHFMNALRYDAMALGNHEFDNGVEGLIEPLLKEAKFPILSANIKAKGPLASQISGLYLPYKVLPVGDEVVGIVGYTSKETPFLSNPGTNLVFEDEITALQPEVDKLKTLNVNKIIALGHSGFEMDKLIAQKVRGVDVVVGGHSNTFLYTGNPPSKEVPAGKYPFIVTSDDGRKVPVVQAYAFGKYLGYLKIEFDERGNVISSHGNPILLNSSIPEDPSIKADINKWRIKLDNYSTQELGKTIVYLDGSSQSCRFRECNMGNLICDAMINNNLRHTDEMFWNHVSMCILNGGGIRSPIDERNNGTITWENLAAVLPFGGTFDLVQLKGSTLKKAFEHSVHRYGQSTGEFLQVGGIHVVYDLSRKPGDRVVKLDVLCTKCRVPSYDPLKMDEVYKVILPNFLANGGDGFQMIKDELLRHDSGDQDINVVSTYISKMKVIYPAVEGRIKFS
Experiment: flow cytometry on CHO-K1 cells overexpressing human CD73 (CHO-K1-hCD73)
Method: In order to investigate the binding activity of the CD73×PD-L1 bispecific antibody to human CD73 and PD-L1, the binding experiment at the cellular level was performed using CHO-K1 cell strains overexpressing human CD73 or PD-L1 (CHO-K1-hCD73 or CHO-K1-hPD-L1). Briefly, the CHO-K1-hCD73 and CHO-K1-hPD-L1 cells were digested and resuspended in an F-12K complete medium, and the cell density was adjusted to 1×10⁶ cells/mL. The cells were seeded in a 96-well V-bottom plate (Corning, #3894) at 100 μL/well, followed by the addition at 100 μL/well and centrifugation at 500 g at 4° C. for 5 min, and then the supernatant was discarded. Antibodies were 3-fold diluted to a maximum final concentration of 50 nM, and a total of 8 concentrations were set. 100 μL of the diluted antibodies was added to the cells, and the cells were incubated away from light at 4° C for 1 h. Thereafter, the cells in each well were rinsed twice with 100 μL of pre-cooled PBS, and centrifuged at 500 g at 4° C. for 5 min, and then the supernatant was discarded. Then 100 μL of a fluorescent secondary antibody (goat anti-human IgG (H+L) secondary antibody, Alexa Fluor® 488 conjugate, Invitrogen, #A11013, diluted at the ratio of 1:1000) was added to each well. […] Finally, the cells in each well were resuspended in 200 μL of pre-cooled PBS, and the fluorescence signal values were read using a BD FACS CANTOII.

B1: PR003569 (bispecific antibody, human IgG1, kappa)
heavy: QVQLVESGGGVVQPGMSLRLSCAASGFTFSSYGMYWVRQAPGKGQEWVAIIWYDGTKKHYADSVKGRFTISRDNSKNTLYLEMNSLRVEDTAVYYCAKNRAIFGVVPDASDIRGQGTMVTVSSGGGGSGGGGSGGGGSQVQLVESGGGVAQPGRSLSLSCAASGFTFSDYGMHWVRQAPGKGLEWVALIWYDASFEYYADSVKGRFSISRDNSKNTLYLQMNSLRAEDTAVYYCVRDAQWGSRLDYWGQGTLVTVSSASTKGPSVFPLAPSSKSTSGGTAALGCLVKDYFPEPVTVSWNSGALTSGVHTFPAVLQSSGLYSLSSVVTVPSSSLGTQTYICNVNHKPSNTKVDKKV[human IgG1 Fc with changes omitted]
light: KIVMTQSPATLSLSPGERATLSCRASQSVSRYLAWYQQKPGQAPRLLIYDASNRATGIPARFSGSGSGTDFTLTISSLEPEDFAVYYCQQRSNWIFTFGPGTKVDIKRTVAAPSVFIFPPSDEQLKSGTASVVCLLNNFYPREAKVQWKVDNALQSGNSQESVTEQDSKDSTYSLSSTLTLSKADYEKHKVYACEVTHQGLSSPVTKSFNRGEC
notes: light chain of PR000846; also called CD73×PD-L1 bispecific antibody PR003569
EC50: 1.73 nM
